Test results from PubChem BioAssay AID651567 (National Center for Advancing Translational Sciences (NCATS), 2012).
Screen size: about 1,200 compounds; about 10 (0.8%) were called active. Roughly 4% stayed inconclusive and do not appear here. The call rests on the fitted dose curve; in most records, active means well fitted inhibition curve with a large enough effect; inconclusive means small, poorly fitted or top-dose-only effect; inactive means no such curve, though single readings can be large or run the other way. The list shows a part of the results.

assay: qHTS Assay to Find Inhibitors of Chronic Active B-Cell Receptor Signaling: Hit Validation in OCI-Ly3 Assay; conditions: OCI-Ly3 IkB-luciferase reporter, Chroma-Glo luminescence, 4 h; series mostly up to 46.1 µM; activity change, negative = inhibition: at the top concentration
Source text: Diffuse large B-cell lymphoma (DLBCL) is the most common category of non-Hodgkin lymphoma, with ~20,000 new cases per year in the United States. DLBCL should be regarded as a collection of different neoplasms. Microarray gene expression analysis has defined two principal types of DLBCL, named for their similarity to normal B cell stages or activation states: a germinal center B-cell (GCB) type, and an activated B-cell (ABC) type. In ABC-DLBCL, a constitutive high-level activity of the NF-kappaB family of transcription factors has been observed (1) and NF-kappaB target genes are more highly expressed in ABC primary tumors than in GCB tumors. Functional studies have shown a constitutive high-level activity of the IkappaB (inhibitor of kappa-B) kinase (IKK) complex. […] Further analysis of DLBCL primary tumors for NF-kappaB target gene expression imply that although CARD11 is required for constitutive IKK activity in all ABC-DLBCL lines, mutations in CARD11 may be the root cause of IKK activation only in lines or tumors with such mutations. In other words, CARD11 mutations may explain NF-kappaB activation in only 10% of ABC-DLBCL cases. […] This process has been termed 'chronic active BCR signaling' (CABS). The goal of this screen is to find small-molecule inhibitors of the CABS pathway found in ABC-DLBCL lines using a cell-based assay that measures IkappaBalpa stability, which has already been extensively validated in the OCI-Ly3 line (PubChem AID:445; REF: 4). […] Hits from the primary screen were tested in this selectivity secondary assay. NIH Molecular Libraries Probe Production Network [MLPCN] NIH Chemical Genomics Center [NCGC] MLPCN Grant: R03 DA031086 PI Name: Dr. R. Eric Davis
Cells were seeded in 1536-well plates at 5000 cells/3ul in IMDM medium containing 0.5% FBS, w/o phenol red, L-glutamine, 25 mM HEPES, 3 mg/ml sodium bicarbonate. After centrifugation for 1 min. at 1000 rpm, 23 nl of compounds or DMSO were delivered to each well using a pin tool. Then 1ul 80ng/ml doxycycline was dispensed into white solid 1536-well plates and the plates were incubated at 37C/5% C02 in a cell incubator for 4 hrs. Then 4 ul Chroma-Glo luminescent substrate mix (Promega) was added to each well. The plate was incubated at R.T. for 10-15 min. The plates were measured on a ViewLux plate reader for green luminescence (540/20 nm filter) and red luminescence (618/8 nm filter). The green and red luminescent signals were corrected for red and green luminescence filter overlap using previously determined filter calibration constants (determined using the procedure outlined in the Promega Technical Manual). The %Activity was determined from the ratio of corrected green/red luminescent values. Green luminescent and ratio %Activity was determined by normalizing to the difference in signal between basal cells (0% Activity) and cells incubated with 10 uM of the proteasome inhibitor MG-132 (100% Activity). Red luminescent %Activity was normalized to the difference between red luminesence in basal cells (0%Activity) and zero luminescence (-100% Activity). Concentration-response curves were fitted to the signals arising from the green luminescence (I-kappa-B-alpha-luciferase fusion; IkB-luc) and the red luminescence (unfused luciferase; luc) as well as the calculated ratio. The concentration-effect curves were then classified based on curve quality (r2), response magnitude and degree of measured activity. Compounds were then categorized based on their concentration-response curves for all three datasets (Ikb-luc, luc and ratio).
On the % scale 0 is the no-effect control and ±100 the full control effect.

Activity change, negative = inhibition, inactive:
COc1ccc(COc2cc(-c3cccc(OC)c3)nc3ccc(N)cc23)cc1 -8.19%
Cc1cc(Cl)ccc1OCCCC(=O)NO -1.47%
Cc1ccc(S(=O)(=O)N2CCCCC2CCNC(=O)C(=O)NCc2ccccc2)cc1 (centres undefined) -0.77%
OC(CNCc1ccc(-c2ccccc2)cc1)c1ccccc1 (centres undefined) 0.251%
COc1ccc(N/C=C/C(=O)c2cc(OC)c(OC)c(OC)c2)cc1 -3.76%
Cn1nc(C(F)(F)F)c(/C=N/OC(=O)c2ccccc2)c1Sc1ccc(Cl)cc1 -1.12%
Cc1ccccc1NC(=S)N=Nc1c(O)n(C)c2ccc(S(=O)(=O)N3CCOCC3)cc12 -18.4%
C=CCNC(=S)NN=C1CCCCCCC1 -0.547%
O=C(CSc1cccc[n+]1[O-])c1cc(Cl)ccc1Cl -6.48%
O=C(NCC(=O)N1CCCC(C(F)(F)F)C1)c1ccc(Oc2ccccc2)cc1 (centres undefined) -1.11%
COc1ccc(OC)c(-c2cc(C(=O)Nc3c(C)nn(Cc4ccccc4)c3C)no2)c1 -2.57%
CCOC(=O)c1[nH]c(C)c(C(=O)OCC)c1C -0.576%
COc1cc(NC(=O)c2cc(C(C)C)on2)cc(OC)c1OC -0.156%
CNC(=S)N/N=C1\C(=O)c2cccc3cccc1c23 -16.6%
CCN(CC)c1ccc(-c2nn3c(-c4n[nH]c5c4CCC5)nnc3s2)cc1 -7.08%
Fc1ccc(/C=N/NC(=S)Nc2cccnc2)cc1 0.501%
Fc1cccc2sc(Nc3nnc(-c4ccccc4)o3)nc12 21.3%
COc1ccc(C(=O)c2ccc(N(C)C)cc2)c2ccccc12 -4.15%
COc1ccccc1CNC(=O)CSC(=S)N1CCCC1 -0.636%
O=C(Nc1ncc(Cc2ccc(SC(F)F)cc2)s1)c1ccccc1 -2.3%
COc1cc(/C(C)=N/NC(=S)NC(C)C)cc(OC)c1OC -3.45%
COc1ccc(NS(=O)(=O)c2cc(-c3cnc(C4CC4)o3)ccc2C)cc1 -1.39%
O=S1(=O)[C@H]2C[C@H](CO)O[C@@]2(CO)CN1Cc1ccc(-c2cccc(Cl)c2)cc1 -0.904%
CCOc1cc(C(=O)N/N=C/C(Br)=C/c2ccccc2)cc(OCC)c1OCC -11.1%
COc1ccc(-c2cnnn2-c2ccc(NC(=O)c3ccc(S(=O)(=O)N4CCCCC4)cc3)cc2)cc1OC -2.07%
CCC1=Nc2cc(C(=O)NCCCOC(C)C)ccc2Sc2ccc(C)cc21 -4.12%
CC(C)N=C(NS(=O)(=O)c1ccccc1)C(Cl)(Cl)Cl -13.3%
CCC(=C/c1sc2ccc3ccccc3c2[n+]1C)/C=C1\Sc2ccc3ccccc3c2N1C -0.835%
CCOC(=O)C1=C(O)/C(=C/c2ccc(OCC(=O)O)c(OCC)c2)SC1=Nc1ccccc1 -0.0931%
C=CCN(CC=C)C(=S)NC(=O)c1ccc(OC)cc1 -0.681%
COc1ccccc1OCCCN1C(=O)C(=O)c2cccc(C)c21 -1.49%
O=C(COc1ccc(-c2ccccc2)cc1)N1CCN(S(=O)(=O)Cc2ccccc2)CC1 -0.659%
Cc1ccc(C)c(/C=C/C(=O)c2ccccc(=O)c2O)c1 -19.2%
Cn1nnnc1N=N/C(=N/Nc1ccccc1)c1ccccc1 -7.08%
COc1ccc(CC2(CO)CCN(Cc3cccc4nccnc34)CC2)cc1 -0.257%
Cc1c(CCC(=O)N2CCC(C(=O)O)CC2)c(=O)oc2cc3oc4c(c3cc12)CCCC4 0.36%
COC(=O)c1ccc(Oc2cc(C)nc(-n3nc(C)cc3C)n2)cc1 -2.62%
COc1ccccc1C1C2=C(COC2=O)Nc2cc3c(cc21)OCO3 (centres undefined) -6.67%
O=[N+]([O-])/C=C/c1cc2ccccc2[nH]1 -16.6%
Cc1cc(C)cc(N2CC(O)=C(c3nc4ccccc4c(=O)[nH]3)C2=N)c1 0.3%
Cc1nc(N2N=C(c3ccc(Cl)cc3)CC2c2ccco2)sc1C(=O)N(C)C (centres undefined) -0.7%
COc1ccc(/C=C/C(=O)Nc2ccc(-n3nncc3-c3ccc(OC)c(OC)c3)cc2)cc1OC -1.06%
Oc1[nH]c2c(Cl)cc(Cl)cc2c1N=NC(=S)NCC1CCCO1 (centres undefined) -26.5%
CCOC(=O)c1c(C)n(C)c2ccc(OC)c(NC(=O)CN3CCC4(CC3)OCCO4)c12 -0.0762%
CCc1cc2c(SCC(=O)NC3CC3)ncnc2s1 -0.679%
S=c1nn[nH]n1C12CC3CC(CC(C3)C1)C2 0.0814%
CCOCCCNC(=O)c1ccc2c(c1)N=C(CC)c1cc(Br)ccc1S2 -1.89%
Clc1ccc2nc(-c3ccccc3)nc(C(Cl)Cl)c2c1 -3.4%
O=C(CSc1nnnn1-c1ccccc1)Nc1nsc(-c2ccc(Cl)cc2)n1 -2.89%
COc1ccc(/C=C2\CCc3ccccc3C2=O)cc1O 39.3%
NC(=S)N/N=C1\CC(c2ccc3c(c2)OCCCO3)Oc2ccc(F)cc21 (centres undefined) -4.5%
CCOC(=O)C1=C(COC(=O)/C=C/c2ccc(O)c(OC)c2)NC(=O)NC1C (centres undefined) -1.58%
COc1cccc(C(=O)Nc2cc(NC(=O)c3cccs3)ccc2C)c1OC 0.529%
COc1cc(CC(=O)OCC(=O)c2ccc3c(c2)OCCO3)cc(OC)c1OC -2.34%
CCOc1ccccc1NC(=O)Cn1nnc(C(=O)NCc2cccs2)c1N -3.2%
Cc1cccc(NS(=O)(=O)c2ccc(-c3cnc(C4CC4)o3)cc2)c1C -14.9%
C=CCSc1nc(C)cc2c1C(=O)OC2 0.181%
C#C[C@]1(O)CC[C@H]2[C@@H]3CCc4cc(O)ccc4[C@H]3CC[C@@]21C -0.706%
c1ccc2c(CSc3ncnc4nc[nH]c34)cccc2c1 -2.81%
COc1cccc(/C=N/NC(=S)Nc2cccc(S(=O)(=O)N(C)C)c2)c1 -14.5%
Cc1ccc(C)c(/C=N/NC(=S)NC(C)C)c1 -0.518%
CCOc1ccc(S(=O)(=O)Nc2ccc3oc(C)c(C(=O)OCCOC)c3c2)cc1 -4.35%
CCCc1oc2ccc(NS(=O)(=O)c3ccc(OC)cc3)cc2c1C(=O)OCC -4.35%
COc1cc(-c2noc(C)c2-c2ccc(N(C)C)nc2)cc(OC)c1OC -1.48%
Cc1cc(C(=O)OCC(=O)Nc2c(Cl)cccc2Cl)c(C)o1 -0.808%
CCc1ccc(CNC(=O)Cc2ccc(NC(=O)C3=C(C)OCCS3)cc2)cc1 -2.51%
CCN(CC)S(=O)(=O)c1ccc(N2CCOCC2)c(NC(=O)c2c3c(nc4ccccc24)CCC3)c1 -1.2%
CCOc1ccccc1C(=O)N1CCN(c2cccc(Cl)c2)CC1 -2.27%
O=C(O)CCCN1C(=O)/C(=C\c2ccccc2OCc2ccccc2)SC1=S -3.44%
